# Reference: the antibiotic and cytotoxicity screens of Wong et al. (2023)
# The other results are listed elsewhere or left out.
# Assays:
# HSkMC = human skeletal muscle cells; test: cytotoxicity call (relative viability < 0.9); conditions: 10 µM
# HepG2 = test: cytotoxicity call (relative viability < 0.9); conditions: 10 µM
# S. aureus RN4220 = test: growth inhibition call (relative growth <= 0.2); conditions: 50 µM
Structure (SMILES),cytotoxicity call (HSkMC),cytotoxicity call (HepG2),growth inhibition call (S. aureus RN4220)
C[C@H](CO)N1C[C@H](C)[C@H](CN(C)S(=O)(=O)c2ccccc2)OCCCC[C@H](C)Oc2ccc(NC(=O)C3CCCCC3)cc2C1=O,inactive,inactive,inactive
COCC(=O)N(C)C[C@@H]1Oc2cc(C#C[C@H](C)O)ccc2S(=O)(=O)N([C@H](C)CO)C[C@H]1C,inactive,inactive,inactive
CC(C)=CCCC(C)(O)C1CC=C(C)CC1 (centres undefined),active,active,inactive
CC1=C2C/C=C(\C)[C@H](O[C@H]3O[C@@H](CO)[C@@H](O)[C@@H](O)[C@@H]3O)C/C=C(\C)C[C@@H]2OC1=O,inactive,inactive,inactive
CN1C(=O)c2cc(NC(=O)Cc3cccs3)ccc2OC[C@@H]2O[C@@H](CC(=O)NCCCN3CCOCC3)CC[C@@H]21,inactive,inactive,inactive
O=C(C[C@@H]1C[C@H]2c3cc(NC(=O)C4CCOCC4)ccc3O[C@H]2[C@H](CO)O1)NCc1ccc(Cl)cc1,inactive,inactive,inactive
C=CC[C@H](CC(=O)N[C@@H](CO)Cc1ccccc1)C(=O)N[C@H](COC(=O)[C@@H](CC=C)Cc1ccc(F)cc1)Cc1c[nH]c2ccccc12,inactive,inactive,inactive
C[C@@H]1CCCCO[C@@H](CN(C)C(=O)NC2CCCCC2)[C@H](C)CN([C@@H](C)CO)C(=O)c2cc(NC(=O)CCC(F)(F)F)ccc2O1,inactive,inactive,inactive
C[C@@H]1CCCCO[C@@H](CN(C)Cc2ccc(C(F)(F)F)cc2)[C@H](C)CN([C@@H](C)CO)C(=O)c2cc(NC(=O)Nc3ccc4c(c3)OCO4)ccc2O1,inactive,active,inactive
Cn1c(=O)oc2cc(S(=O)(=O)N3CCC[C@H](C(=O)NN4CCOCC4)C3)ccc21,inactive,inactive,inactive
CCn1cc(C(=O)O)c(=O)c2cc(F)c(N3CCNCC3)cc21,inactive,inactive,active
C[C@@H]1CN([C@H](C)CO)C(=O)c2cc(NC(=O)C3CCCCC3)ccc2O[C@@H](C)CCCCO[C@H]1CN(C)C(=O)Nc1ccc(C(F)(F)F)cc1,inactive,inactive,inactive
C[C@H]1CN([C@@H](C)CO)C(=O)c2cccc(NS(C)(=O)=O)c2O[C@H]1CN(C)S(=O)(=O)c1ccc(Cl)cc1,inactive,inactive,inactive
O=C(NCC(=O)N1CC[C@H](N[C@H]2CC[C@@](O)(c3ccc(-c4ncccn4)cn3)CC2)C1)c1cccc(C(F)(F)F)c1,inactive,inactive,inactive
COc1ccc(NC(=O)N(C)C[C@@H]2OCCCC[C@H](C)Oc3ccc(NC(=O)NC4CCCCC4)cc3C(=O)N([C@@H](C)CO)C[C@@H]2C)cc1,inactive,inactive,inactive
COCc1cn(CC[C@H]2CC[C@H](NC(=O)CCN3CCCCC3)[C@@H](CO)O2)nn1,inactive,inactive,inactive
COCCCNC(=O)[C@@H]1c2ccccc2C(=O)N(Cc2cc(C(F)(F)F)cc(C(F)(F)F)c2)[C@H]1c1ccc(CO)cc1,inactive,inactive,inactive
C[C@H](CO)N1C[C@H](C)[C@@H](CN(C)C(=O)C2CC2)Oc2cc(-c3ccc(C(=O)N(C)C)cc3)ccc2S1(=O)=O,inactive,inactive,inactive
O=C(C[C@@H]1CC[C@H]2[C@@H](COC[C@@H](O)CN2C(=O)Nc2ccc3c(c2)OCO3)O1)N1CCN(c2ccccc2)CC1,inactive,inactive,inactive
CN1CCN(S(=O)(=O)c2ccc(CN)cc2)CC1,inactive,inactive,inactive
CC1CC=CC=CC=CC=CC(OC2OC(C)C(O)C(N)C2O)CC2OC(O)(CC(O)CC3OC3C=CC(=O)O1)CC(O)C2C(=O)O (centres undefined),inactive,inactive,inactive
COc1ccc(S(=O)(=O)Nc2ccc3c(c2)C(=O)N([C@@H](C)CO)C[C@@H](C)[C@H](CN(C)C(=O)c2ccccc2)OCCCC[C@@H](C)O3)cc1,inactive,inactive,inactive
CN1CCN(C(=O)C[C@H]2CC[C@H]3[C@@H](COc4ccc(NC(=O)C5CCCCC5)cc4C(=O)N3C)O2)CC1,inactive,inactive,inactive
C[C@@H]1CN([C@H](C)CO)S(=O)(=O)c2ccc(C#Cc3cccc(F)c3)cc2O[C@@H]1CN(C)S(=O)(=O)c1ccccc1F,inactive,inactive,inactive
C[C@@H]1CN([C@@H](C)CO)C(=O)Cc2cc(NC(=O)C3CCCCC3)ccc2O[C@@H]1CN(C)C(=O)Nc1ccc(C(F)(F)F)cc1,inactive,inactive,inactive
Cc1noc(C)c1S(=O)(=O)Nc1ccc2c(c1)C(=O)N([C@@H](C)CO)C[C@@H](C)[C@@H](CN(C)C(=O)Nc1cccc3ccccc13)OCCCC[C@@H](C)O2,inactive,active,inactive
C[C@H](CO)N1C[C@H](C)[C@@H](CN(C)S(=O)(=O)c2ccc(Cl)cc2)OCCCC[C@H](C)Oc2ccc(NC(=O)c3ccccc3)cc2C1=O,inactive,inactive,inactive

Structure (SMILES),cytotoxicity call (HSkMC),cytotoxicity call (HepG2),growth inhibition call (S. aureus RN4220)
CC(C)(C)[S@@](=O)N1Cc2cc(C(=O)NCc3ccccn3)nc(-c3cccc(-c4ccccc4F)c3)c2[C@H]1CCO,inactive,inactive,inactive
C[C@H](O)C#Cc1ccc2c(c1)O[C@@H](CN(C)C(=O)C1CCCCC1)[C@H](C)CN([C@@H](C)CO)S2(=O)=O,inactive,inactive,inactive
COc1ccc2c(C)cc(=O)oc2c1,inactive,inactive,inactive
C[C@H]1CN([C@@H](C)CO)C(=O)c2cc(C#Cc3ccccn3)cnc2O[C@@H]1CN(C)C(=O)CCN1CCCCC1,inactive,inactive,inactive
C[C@H](CO)N1C[C@H](C)[C@@H](CN(C)S(=O)(=O)c2cccs2)Oc2c(NC(=O)c3cnccn3)cccc2C1=O,inactive,inactive,inactive
CCN(CC)CCNC(C(=O)OCCC(C)C)c1ccccc1.Cl.Cl (centres undefined),inactive,inactive,inactive
COc1ccc(S(=O)(=O)N(C)C[C@H]2Oc3c(NS(=O)(=O)c4ccc(C)cc4)cccc3C(=O)N([C@H](C)CO)C[C@@H]2C)cc1,inactive,inactive,inactive
C[C@H](CO)N1C[C@H](C)[C@@H](CN(C)C(=O)Nc2ccc3c(c2)OCO3)Oc2ncc(-c3cccnc3)cc2C1=O,inactive,inactive,inactive
Cc1nnc(CN)o1,inactive,inactive,inactive
COc1ccc(NC(=O)Nc2ccc3c(c2)C(=O)N([C@@H](C)CO)C[C@H](C)[C@@H](CN(C)Cc2ccncc2)OCCCC[C@H](C)O3)cc1,inactive,inactive,inactive
Cc1ccc(S(=O)(=O)Nc2ccc3c(c2)C(=O)N([C@@H](C)CO)C[C@@H](C)[C@@H](CN(C)C(=O)Nc2ccc(F)cc2)OCCCC[C@@H](C)O3)cc1,inactive,inactive,inactive
C[C@H](CO)N1C[C@H](C)[C@@H](CN(C)Cc2cccc(C(=O)O)c2)OCc2ccccc2-c2c(n(C)c3ccccc23)C1=O,inactive,inactive,inactive
C[C@H]1CN([C@@H](C)CO)C(=O)c2cccc(NC(=O)c3ccncc3)c2O[C@H]1CN(C)Cc1ccc(-c2ccccc2)cc1,inactive,inactive,inactive
Cc1noc(C)c1S(=O)(=O)N(C)C[C@@H]1OCCCC[C@H](C)Oc2ccc(NC(=O)Nc3ccc(C(F)(F)F)cc3)cc2C(=O)N([C@H](C)CO)C[C@@H]1C,inactive,active,inactive
COc1ccc(CSCCN)cc1Cl,inactive,inactive,inactive
Cc1ccc(S(=O)(=O)Nc2ccc3c(c2)C(=O)N([C@@H](C)CO)C[C@@H](C)[C@H](CN(C)C(=O)c2ccccc2)OCCCC[C@@H](C)O3)cc1,inactive,inactive,inactive
C/C(=C\CC[C@@H](C)[C@H]1C[C@@H](O)[C@@]2(C)[C@H]3CC[C@H]4C(C)(C)[C@@H](O[C@@H]5O[C@@H](CO[C@H]6OC[C@@H](O)[C@@H](O)[C@@H]6O)[C@@H](O)[C@@H](O)[C@@H]5O)CC[C@@]45C[C@@]35C[C@@H](O)[C@]12C)C(=O)O[C@H]1O[C@@H](CO)[C@@H](O)[C@@H](O)[C@@H]1O,inactive,inactive,inactive
C[C@H]1CN([C@@H](C)CO)C(=O)c2cccc(NC(=O)c3ccc(-c4nccs4)cc3)c2O[C@H]1CN(C)Cc1ccc(C(=O)Nc2ccccc2N)cc1,inactive,inactive,inactive
CC(C)CC#Cc1ccc2c(c1)O[C@H](CN(C)S(=O)(=O)c1cccc(F)c1)[C@H](C)CN([C@H](C)CO)S2(=O)=O,inactive,inactive,inactive
CCS(=O)(=O)N[C@@H]1CC[C@@H](CC(=O)NCC2CC2)O[C@H]1CO,inactive,inactive,inactive
N[C@H](C(=O)O)[C@H](O)c1ccc(O)c(O)c1,inactive,inactive,inactive
CCCN1C[C@@H](C)[C@@H](OC)CN(C)C(=O)c2cc(NS(=O)(=O)c3cn(C)cn3)ccc2OC[C@@H]1C,inactive,inactive,inactive
C[C@H]1CN([C@@H](C)CO)C(=O)Cc2cc(NC(=O)Cn3cnnn3)ccc2O[C@H]1CN(C)Cc1ccc2c(c1)OCO2,inactive,inactive,inactive
COc1ccc(S(=O)(=O)Nc2ccc3c(c2)C(=O)N([C@@H](C)CO)C[C@H](C)[C@H](CN(C)Cc2ccc(C(=O)O)cc2)OCCCC[C@H](C)O3)cc1,inactive,inactive,inactive
C[C@@H]1CN([C@@H](C)CO)C(=O)c2cccc(NC(=O)c3cnccn3)c2O[C@H]1CN(C)C(=O)Nc1ccccc1,inactive,inactive,inactive
C[C@H]1CN([C@@H](C)CO)C(=O)c2cc(-c3ccc(F)cc3)cnc2O[C@H]1CN(C)C(=O)Cc1ccccn1,inactive,inactive,inactive
